This continues a long series; more values of the same kind are listed elsewhere.
Experiments:
Assay in all cases: concentration in plasma after dosing
[1] = tested on: Rat; conditions: dosed: Fluorotelomer alcohol 8+2, 160 mg/kg, oral, Female, Harlan Sprague Dawley
[2] = tested on: Rat
[3] = tested on: Rat; conditions: 5 h; dosed: Formamide; 30 mg/kg; iv; Female; F344
[4] = tested on: Rat; conditions: dosed: Formamide, 300 mg/kg, oral, Female, Harlan Sprague Dawley
[5] = tested on: Rat; conditions: dosed: Formamide, 300 mg/kg, oral, Female, Harlan Sprague Dawley; remark: listed apart in the source
[6] = tested on: Rat; conditions: dosed: Formamide, 36 mg/kg, oral, Male, Harlan Sprague Dawley

OCCC(F)(F)C(F)(F)C(F)(F)C(F)(F)C(F)(F)C(F)(F)C(F)(F)C(F)(F)F [Fluorotelomer alcohol 8+2]
[1]
Conditions	concentration in plasma [ng/mL]
0.75 h	1940
12 h	703

concentration in plasma [ng/mL], [2], oral
Conditions	Harlan Sprague Dawley	Harlan Sprague Dawley - this seems too small
0.25 h, dosed: Fluorotelomer alcohol 8+2, 24 mg/kg, Male	204	–
0.25 h, dosed: Fluorotelomer alcohol 8+2, 40 mg/kg, Female	254	–
0.25 h, dosed: Fluorotelomer alcohol 8+2, 48 mg/kg, Male	170	–
0.25 h, dosed: Fluorotelomer alcohol 8+2, 80 mg/kg, Female	255	–
0.25 h, dosed: Fluorotelomer alcohol 8+2, 160 mg/kg, Female	233	–
0.5 h, dosed: Fluorotelomer alcohol 8+2, 24 mg/kg, Male	546	285
0.5 h, dosed: Fluorotelomer alcohol 8+2, 40 mg/kg, Female	466	–
0.5 h, dosed: Fluorotelomer alcohol 8+2, 48 mg/kg, Male	732	–
0.5 h, dosed: Fluorotelomer alcohol 8+2, 80 mg/kg, Female	453	–
0.5 h, dosed: Fluorotelomer alcohol 8+2, 160 mg/kg, Female	851	–
0.75 h, dosed: Fluorotelomer alcohol 8+2, 24 mg/kg, Male	919	–
0.75 h, dosed: Fluorotelomer alcohol 8+2, 40 mg/kg, Female	633	–
0.75 h, dosed: Fluorotelomer alcohol 8+2, 48 mg/kg, Male	664	–
0.75 h, dosed: Fluorotelomer alcohol 8+2, 80 mg/kg, Female	1460	–
0.75 h, dosed: Fluorotelomer alcohol 8+2, 160 mg/kg, Female	1310	–
1 h, dosed: Fluorotelomer alcohol 8+2, 24 mg/kg, Male	290	–
1 h, dosed: Fluorotelomer alcohol 8+2, 40 mg/kg, Female	559	–
1 h, dosed: Fluorotelomer alcohol 8+2, 48 mg/kg, Male	689	–
1 h, dosed: Fluorotelomer alcohol 8+2, 80 mg/kg, Female	1040	–
1 h, dosed: Fluorotelomer alcohol 8+2, 160 mg/kg, Female	1890	–
3 h, dosed: Fluorotelomer alcohol 8+2, 24 mg/kg, Male	182	–
3 h, dosed: Fluorotelomer alcohol 8+2, 40 mg/kg, Female	136	–
3 h, dosed: Fluorotelomer alcohol 8+2, 48 mg/kg, Male	474	–
3 h, dosed: Fluorotelomer alcohol 8+2, 80 mg/kg, Female	748	–
3 h, dosed: Fluorotelomer alcohol 8+2, 160 mg/kg, Female	1580	–
5 min, dosed: Fluorotelomer alcohol 8+2, 40 mg/kg, Female	12.5	–
5 min, dosed: Fluorotelomer alcohol 8+2, 48 mg/kg, Male	12.9	–
5 min, dosed: Fluorotelomer alcohol 8+2, 80 mg/kg, Female	5.27	–
5 min, dosed: Fluorotelomer alcohol 8+2, 160 mg/kg, Female	27.2	–
6 h, dosed: Fluorotelomer alcohol 8+2, 24 mg/kg, Male	55.4	–
6 h, dosed: Fluorotelomer alcohol 8+2, 40 mg/kg, Female	325	–
6 h, dosed: Fluorotelomer alcohol 8+2, 48 mg/kg, Male	294	–
6 h, dosed: Fluorotelomer alcohol 8+2, 80 mg/kg, Female	213	–
6 h, dosed: Fluorotelomer alcohol 8+2, 160 mg/kg, Female	2250	–
9 h, dosed: Fluorotelomer alcohol 8+2, 40 mg/kg, Female	112	–
9 h, dosed: Fluorotelomer alcohol 8+2, 48 mg/kg, Male	133	–
9 h, dosed: Fluorotelomer alcohol 8+2, 80 mg/kg, Female	427	–
9 h, dosed: Fluorotelomer alcohol 8+2, 160 mg/kg, Female	279	–
12 h, dosed: Fluorotelomer alcohol 8+2, 24 mg/kg, Male	8.89	–
12 h, dosed: Fluorotelomer alcohol 8+2, 40 mg/kg, Female	57	–
12 h, dosed: Fluorotelomer alcohol 8+2, 48 mg/kg, Male	37.9	–
12 h, dosed: Fluorotelomer alcohol 8+2, 80 mg/kg, Female	52.7	–
12 h, dosed: Fluorotelomer alcohol 8+2, 160 mg/kg, Female	339	–
24 h, dosed: Fluorotelomer alcohol 8+2, 24 mg/kg, Male	4.53	–
24 h, dosed: Fluorotelomer alcohol 8+2, 40 mg/kg, Female	6.22	–
24 h, dosed: Fluorotelomer alcohol 8+2, 48 mg/kg, Male	5.6	–
24 h, dosed: Fluorotelomer alcohol 8+2, 80 mg/kg, Female	20.6	–
24 h, dosed: Fluorotelomer alcohol 8+2, 160 mg/kg, Female	63.4	–
48 h, dosed: Fluorotelomer alcohol 8+2, 48 mg/kg, Male	1.11	–
48 h, dosed: Fluorotelomer alcohol 8+2, 80 mg/kg, Female	3.74	–
48 h, dosed: Fluorotelomer alcohol 8+2, 160 mg/kg, Female	7.4	–

NC=O [Formamide]
concentration in plasma [ng/mL], [2], dosed: Formamide
Conditions	Female	Male
0.25 h, 30 mg/kg, iv, F344	40500	–
0.25 h, 36 mg/kg, oral, Harlan Sprague Dawley	24900	26100
0.25 h, 90 mg/kg, iv, Harlan Sprague Dawley	–	116000
0.25 h, 300 mg/kg, oral, F344	–	155000
0.25 h, 300 mg/kg, oral, Harlan Sprague Dawley	150000	–
0.25 h, 600 mg/kg, oral, Harlan Sprague Dawley	402000	402000
0.5 h, 30 mg/kg, iv, F344	33400	–
0.5 h, 36 mg/kg, oral, Harlan Sprague Dawley	41200	33000
0.5 h, 90 mg/kg, iv, Harlan Sprague Dawley	–	111000
0.5 h, 90 mg/kg, iv, Harlan Sprague Dawley - this seems too small	–	120000
0.5 h, 300 mg/kg, oral, Harlan Sprague Dawley	185000	–
0.5 h, 600 mg/kg, oral, F344	610000	–
0.5 h, 600 mg/kg, oral, Harlan Sprague Dawley	712000	–
1 h, 30 mg/kg, iv, F344	36400	–
1 h, 36 mg/kg, oral, Harlan Sprague Dawley	45800	46600
1 h, 90 mg/kg, iv, Harlan Sprague Dawley	–	193000
1 h, 300 mg/kg, oral, F344	170000	–
1 h, 300 mg/kg, oral, Harlan Sprague Dawley	180000	–
1 h, 600 mg/kg, oral, Harlan Sprague Dawley	685000	800000
1.5 h, 36 mg/kg, oral, Harlan Sprague Dawley	47900	42000
1.5 h, 300 mg/kg, oral, Harlan Sprague Dawley	276000	–
1.5 h, 600 mg/kg, oral, Harlan Sprague Dawley	727000	761000
2 h, 30 mg/kg, iv, F344	43100	–
2 h, 36 mg/kg, oral, Harlan Sprague Dawley	41400	–
2 h, 90 mg/kg, iv, Harlan Sprague Dawley	–	135000
2 h, 300 mg/kg, oral, F344	208000	–
2 h, 300 mg/kg, oral, Harlan Sprague Dawley	254000	–
2 h, 600 mg/kg, oral, Harlan Sprague Dawley	542000	782000
3 h, 30 mg/kg, iv, F344	33100	–
3 h, 90 mg/kg, iv, Harlan Sprague Dawley	–	141000
5 h, 30 mg/kg, iv, F344	29900	–
5 h, 36 mg/kg, oral, Harlan Sprague Dawley	42600	48800
5 h, 90 mg/kg, iv, Harlan Sprague Dawley	–	103000
5 h, 300 mg/kg, oral, F344	–	244000
5 h, 300 mg/kg, oral, Harlan Sprague Dawley	245000	–
5 h, 600 mg/kg, oral, Harlan Sprague Dawley	750000	813000
5 min, 30 mg/kg, iv, F344	42800	–
5 min, 36 mg/kg, oral, Harlan Sprague Dawley	5000	–
5 min, 90 mg/kg, iv, Harlan Sprague Dawley	–	141000
5 min, 300 mg/kg, oral, F344	61900	–
5 min, 300 mg/kg, oral, Harlan Sprague Dawley	50100	–
5 min, 600 mg/kg, oral, Harlan Sprague Dawley	226000	175000
8 h, 30 mg/kg, iv, F344	24200	–
8 h, 36 mg/kg, oral, Harlan Sprague Dawley	31200	44100
8 h, 90 mg/kg, iv, Harlan Sprague Dawley	–	96000
8 h, 300 mg/kg, oral, Harlan Sprague Dawley	386000	–
8 h, 600 mg/kg, oral, F344	–	701000
8 h, 600 mg/kg, oral, Harlan Sprague Dawley	725000	700000
10 min, 30 mg/kg, iv, F344	46800	–
10 min, 36 mg/kg, oral, Harlan Sprague Dawley	19600	–
10 min, 90 mg/kg, iv, Harlan Sprague Dawley	–	53400
10 min, 300 mg/kg, oral, F344	137000	–
10 min, 300 mg/kg, oral, Harlan Sprague Dawley	87600	–
10 min, 600 mg/kg, oral, Harlan Sprague Dawley	509000	452000
12 h, 30 mg/kg, iv, F344	21300	–
12 h, 36 mg/kg, oral, Harlan Sprague Dawley	25500	32400
12 h, 90 mg/kg, iv, Harlan Sprague Dawley	–	88600
12 h, 300 mg/kg, oral, Harlan Sprague Dawley	340000	–
12 h, 600 mg/kg, oral, F344	–	626000
12 h, 600 mg/kg, oral, Harlan Sprague Dawley	637000	603000
18 h, 30 mg/kg, iv, F344	16400	–
18 h, 90 mg/kg, iv, Harlan Sprague Dawley	–	30100
20 h, 36 mg/kg, oral, Harlan Sprague Dawley	18100	–
20 h, 300 mg/kg, oral, F344	155000	–
20 h, 300 mg/kg, oral, Harlan Sprague Dawley	204000	–
20 h, 600 mg/kg, oral, Harlan Sprague Dawley	293000	491000
24 h, 30 mg/kg, iv, F344	4200	–
24 h, 90 mg/kg, iv, Harlan Sprague Dawley	–	31900
30 h, 36 mg/kg, oral, Harlan Sprague Dawley	9200	10400
30 h, 300 mg/kg, oral, Harlan Sprague Dawley	166000	–
30 h, 600 mg/kg, oral, Harlan Sprague Dawley	191000	373000
36 h, 30 mg/kg, iv, F344	2100	–
36 h, 90 mg/kg, iv, Harlan Sprague Dawley	–	20600
48 h, 30 mg/kg, iv, F344	1200	–
48 h, 36 mg/kg, oral, Harlan Sprague Dawley	3700	4600
48 h, 90 mg/kg, iv, Harlan Sprague Dawley	–	13100
48 h, 90 mg/kg, iv, Harlan Sprague Dawley - this seems too small	–	5400
48 h, 300 mg/kg, oral, Harlan Sprague Dawley	60900	–
48 h, 600 mg/kg, oral, F344	133000	–
48 h, 600 mg/kg, oral, Harlan Sprague Dawley	78600	–
72 h, 36 mg/kg, oral, Harlan Sprague Dawley	2600	2800
72 h, 300 mg/kg, oral, F344	3100	–
72 h, 300 mg/kg, oral, Harlan Sprague Dawley	25400	–
72 h, 600 mg/kg, oral, Harlan Sprague Dawley	29300	45000
96 h, 90 mg/kg, iv, Harlan Sprague Dawley	–	2700

Conditions	concentration in plasma [ng/mL]
[3]	28700

Conditions	concentration in plasma [ng/mL]
[4], 2 h	252000
[4], 5 min	55500
[5], 1.5 h	281000
[5], 30 h	84700
[6], 0.5 h	34200
[6], 48 h	7800
